From paper PMC9372576
These are yes or no findings as the source states them, for the method shown. Binding seen in cells or lysates may run through a third protein. Some binding calls cover weakened binding; strength is not graded here. For some of these results: Where a sequence is shown, tags or fusion partners need not be part of it. Blank lines part the entries; values can stand above or below the binder they belong to.

Columns and labels:
[1] = target: T1, GvpO fused to NGFP or CGFP (Halobacterium salinarum) (UniProt O51968); test: split reporter; split-GFP (NGFP and CGFP of salt-stable mGFP2) in Hfx. volcanii transformants, 24 h 37 °C then 24 h 30 °C; relative fluorescence (rf) against the wild type; the highest of eight tag combinations is given
T1 sequence: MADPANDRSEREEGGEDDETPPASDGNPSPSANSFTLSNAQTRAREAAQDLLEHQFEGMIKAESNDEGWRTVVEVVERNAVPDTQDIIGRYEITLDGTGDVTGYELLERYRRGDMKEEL

[2] = target: T2, GvpA fragment A44-76 (Halobacterium salinarum) (UniProt P08958); test: as above
T2 sequence: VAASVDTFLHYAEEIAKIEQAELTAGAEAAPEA

[3] = target: T3, GvpA fragment A20-47 (Halobacterium salinarum) (UniProt P08958); test: as above
T3 sequence: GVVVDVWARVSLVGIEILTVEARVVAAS

[4] = target: T4, CBDA (Halobacterium salinarum) (UniProt P08958); test: pull-down; CBDA co-produced with GvpF through GvpM all together (CBDA/F-M transformants); cellulose matrix, elution fraction probed by Western analysis with each antiserum
T4 sequence: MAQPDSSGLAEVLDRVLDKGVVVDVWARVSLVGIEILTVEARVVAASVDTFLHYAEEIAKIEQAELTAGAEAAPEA

[5] = target: T4, CBDA (Halobacterium salinarum); test: pull-down; CBD-tagged bait and one untagged prey co-produced in Hfx. volcanii CBDX/Y transformants; lysate in 2.5 M KCl buffer pH 8.0 bound to cellulose (Avicel), six washes, elution with ethylene glycol, Western analysis with Gvp antisera
[6] = target: T5, GvpA fused to NGFP or CGFP (Halobacterium salinarum) (UniProt P08958); test: split reporter; split-GFP (NGFP and CGFP of salt-stable mGFP2) in Hfx. volcanii transformants, 24 h 37 °C then 24 h 30 °C; relative fluorescence (rf) against the wild type; the highest of eight tag combinations is given
T5 sequence: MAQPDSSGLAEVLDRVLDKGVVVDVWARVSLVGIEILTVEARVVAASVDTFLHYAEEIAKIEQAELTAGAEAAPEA

[7] = target: T6, GvpC N-terminal fragment Nterm (Halobacterium salinarum) (UniProt P24574); test: as above
T6 sequence: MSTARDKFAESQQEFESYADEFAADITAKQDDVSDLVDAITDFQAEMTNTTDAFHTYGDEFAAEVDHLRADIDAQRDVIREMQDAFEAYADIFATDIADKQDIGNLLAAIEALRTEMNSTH

binding [1]: binds
B1: GvpI fused to NGFP or CGFP (protein, UniProt Q9HI24 1-144)
chain: MSDKQQQKHKQKARQARVKAQINRDKARRNLLRQREKLARRRTRNRKQSEPRRDDSDGDDTDGETVKNPAAHSTMPPQKSNAENAVRNSHSTVPKTPKYSDVTARERLYGQRLHQKTAGGNSEASAPSDESASGSPTEDEVNDE

binding [2]: no binding (tested: rf ≤ 0.48)
binding [3]: no binding (tested: rf ≤ 0.48)
B2: GvpA fragment A1-43 (domain or fragment, UniProt P08958 1-43)
chain: MAQPDSSGLAEVLDRVLDKGVVVDVWARVSLVGIEILTVEARV

binding [4]: binds
binding [5]: binds
B3: GvpG (protein, UniProt P24371 1-83)
chain: MFIIDDLFVSPFFSLLDILQTMALDEMYDTKSIRDDIKENQLLYEVGERSDEEYQQRKQALESQLEMAEQVQEQMRDRMEVKK

binding [4]: binds
binding [5]: binds
B4: GvpM (protein, UniProt P24377 1-84)
chain: MEPTKDETHAIVEFVDVLLRDGAVIQADVIVTVADIPLIGISLRAAIAGMTTMTEYGLFEEWDAAHRQQSEAFTTSPTADRRED

binding [1]: binds
B5: GvpF fused to NGFP or CGFP (protein, UniProt Q9HI21 1-213)
chain: MTENLYTYGIIEQEDLELDVEGVAGAEQVYTVDYKTLSAVVSDIDTTDPERTDEDVEAHNNVLQEVLKHEEERTVVPMSFGMAFKSARTLKGVLRGARRALRSTLNDIEGTVELGVKILGPGDDTVPREEIQENVTDQLADLSINETENDLFTDRLIINKSYLVDFEKRDAFDSAIDDVEAEYDELTIQYTGPWPPYNFVDIHIGAEQQQGGR

binding [6]: binds
B6: GvpF variant K85E (protein, UniProt Q9HI21 1-213)
chain: MTENLYTYGIIEQEDLELDVEGVAGAEQVYTVDYKTLSAVVSDIDTTDPERTDEDVEAHNNVLQEVLKHEEERTVVPMSFGMAFESARTLKGVLRGARRALRSTLNDIEGTVELGVKILGPGDDTVPREEIQENVTDQLADLSINETENDLFTDRLIINKSYLVDFEKRDAFDSAIDDVEAEYDELTIQYTGPWPPYNFVDIHIGAEQQQGGR

binding [6]: binds
B7: GvpF variant D154R (protein, UniProt Q9HI21 1-213)
chain: MTENLYTYGIIEQEDLELDVEGVAGAEQVYTVDYKTLSAVVSDIDTTDPERTDEDVEAHNNVLQEVLKHEEERTVVPMSFGMAFKSARTLKGVLRGARRALRSTLNDIEGTVELGVKILGPGDDTVPREEIQENVTDQLADLSINETENDLFTRRLIINKSYLVDFEKRDAFDSAIDDVEAEYDELTIQYTGPWPPYNFVDIHIGAEQQQGGR

binding [6]: binds
B8: GvpF variant D154A (protein, UniProt Q9HI21 1-213)
chain: MTENLYTYGIIEQEDLELDVEGVAGAEQVYTVDYKTLSAVVSDIDTTDPERTDEDVEAHNNVLQEVLKHEEERTVVPMSFGMAFKSARTLKGVLRGARRALRSTLNDIEGTVELGVKILGPGDDTVPREEIQENVTDQLADLSINETENDLFTARLIINKSYLVDFEKRDAFDSAIDDVEAEYDELTIQYTGPWPPYNFVDIHIGAEQQQGGR

binding [4]: binds
binding [5]: binds
B9: GvpF (protein, UniProt Q9HI21 1-213)
chain: MTENLYTYGIIEQEDLELDVEGVAGAEQVYTVDYKTLSAVVSDIDTTDPERTDEDVEAHNNVLQEVLKHEEERTVVPMSFGMAFKSARTLKGVLRGARRALRSTLNDIEGTVELGVKILGPGDDTVPREEIQENVTDQLADLSINETENDLFTDRLIINKSYLVDFEKRDAFDSAIDDVEAEYDELTIQYTGPWPPYNFVDIHIGAEQQQGGR

binding [6]: binds
B10: GvpF variant D53R (protein, UniProt Q9HI21 1-213)
chain: MTENLYTYGIIEQEDLELDVEGVAGAEQVYTVDYKTLSAVVSDIDTTDPERTREDVEAHNNVLQEVLKHEEERTVVPMSFGMAFKSARTLKGVLRGARRALRSTLNDIEGTVELGVKILGPGDDTVPREEIQENVTDQLADLSINETENDLFTDRLIINKSYLVDFEKRDAFDSAIDDVEAEYDELTIQYTGPWPPYNFVDIHIGAEQQQGGR

binding [6]: binds
B11: GvpF variant R73A (protein, UniProt Q9HI21 1-213)
chain: MTENLYTYGIIEQEDLELDVEGVAGAEQVYTVDYKTLSAVVSDIDTTDPERTDEDVEAHNNVLQEVLKHEEEATVVPMSFGMAFKSARTLKGVLRGARRALRSTLNDIEGTVELGVKILGPGDDTVPREEIQENVTDQLADLSINETENDLFTDRLIINKSYLVDFEKRDAFDSAIDDVEAEYDELTIQYTGPWPPYNFVDIHIGAEQQQGGR

binding [6]: binds
B12: GvpF variant D15R (protein, UniProt Q9HI21 1-213)
chain: MTENLYTYGIIEQERLELDVEGVAGAEQVYTVDYKTLSAVVSDIDTTDPERTDEDVEAHNNVLQEVLKHEEERTVVPMSFGMAFKSARTLKGVLRGARRALRSTLNDIEGTVELGVKILGPGDDTVPREEIQENVTDQLADLSINETENDLFTDRLIINKSYLVDFEKRDAFDSAIDDVEAEYDELTIQYTGPWPPYNFVDIHIGAEQQQGGR

binding [6]: binds
B13: GvpF variant D15A (protein, UniProt Q9HI21 1-213)
chain: MTENLYTYGIIEQEALELDVEGVAGAEQVYTVDYKTLSAVVSDIDTTDPERTDEDVEAHNNVLQEVLKHEEERTVVPMSFGMAFKSARTLKGVLRGARRALRSTLNDIEGTVELGVKILGPGDDTVPREEIQENVTDQLADLSINETENDLFTDRLIINKSYLVDFEKRDAFDSAIDDVEAEYDELTIQYTGPWPPYNFVDIHIGAEQQQGGR

binding [6]: binds
B14: GvpF variant D19A (protein, UniProt Q9HI21 1-213)
chain: MTENLYTYGIIEQEDLELAVEGVAGAEQVYTVDYKTLSAVVSDIDTTDPERTDEDVEAHNNVLQEVLKHEEERTVVPMSFGMAFKSARTLKGVLRGARRALRSTLNDIEGTVELGVKILGPGDDTVPREEIQENVTDQLADLSINETENDLFTDRLIINKSYLVDFEKRDAFDSAIDDVEAEYDELTIQYTGPWPPYNFVDIHIGAEQQQGGR

binding [6]: binds
B15: GvpF variant K85A (protein, UniProt Q9HI21 1-213)
chain: MTENLYTYGIIEQEDLELDVEGVAGAEQVYTVDYKTLSAVVSDIDTTDPERTDEDVEAHNNVLQEVLKHEEERTVVPMSFGMAFASARTLKGVLRGARRALRSTLNDIEGTVELGVKILGPGDDTVPREEIQENVTDQLADLSINETENDLFTDRLIINKSYLVDFEKRDAFDSAIDDVEAEYDELTIQYTGPWPPYNFVDIHIGAEQQQGGR

binding [6]: binds
B16: GvpF variant D53A (protein, UniProt Q9HI21 1-213)
chain: MTENLYTYGIIEQEDLELDVEGVAGAEQVYTVDYKTLSAVVSDIDTTDPERTAEDVEAHNNVLQEVLKHEEERTVVPMSFGMAFKSARTLKGVLRGARRALRSTLNDIEGTVELGVKILGPGDDTVPREEIQENVTDQLADLSINETENDLFTDRLIINKSYLVDFEKRDAFDSAIDDVEAEYDELTIQYTGPWPPYNFVDIHIGAEQQQGGR

binding [6]: binds
B17: GvpF variant D19R (protein, UniProt Q9HI21 1-213)
chain: MTENLYTYGIIEQEDLELRVEGVAGAEQVYTVDYKTLSAVVSDIDTTDPERTDEDVEAHNNVLQEVLKHEEERTVVPMSFGMAFKSARTLKGVLRGARRALRSTLNDIEGTVELGVKILGPGDDTVPREEIQENVTDQLADLSINETENDLFTDRLIINKSYLVDFEKRDAFDSAIDDVEAEYDELTIQYTGPWPPYNFVDIHIGAEQQQGGR

binding [2]: no binding (tested: rf ≤ 0.48)
B18: GvpA fragment A20-47 (domain or fragment, UniProt P08958 20-47)
chain: GVVVDVWARVSLVGIEILTVEARVVAAS

binding [7]: binds
B19: GvpH fused to NGFP or CGFP (protein, UniProt P24372 1-182)
chain: MVPDENDDASDDQSSQLSGLLDQLHTLVEVLADIEEEGGHRHESGRIDRGNARIDYDYDVSIGLGRADGSSYDEEPSSNRSRSEQRSGQQRTTEDSIHVETRGGTSGDELVVVADLPGVTDDDVDVALDTDEQALTLRVDDDVVERVVLDRPDVAITDMTLRNQVLEIRLARTSDTDGGEST

binding [4]: binds
binding [5]: binds
B20: GvpH (protein, UniProt P24372 1-182)
chain: MVPDENDDASDDQSSQLSGLLDQLHTLVEVLADIEEEGGHRHESGRIDRGNARIDYDYDVSIGLGRADGSSYDEEPSSNRSRSEQRSGQQRTTEDSIHVETRGGTSGDELVVVADLPGVTDDDVDVALDTDEQALTLRVDDDVVERVVLDRPDVAITDMTLRNQVLEIRLARTSDTDGGEST
